The other results are listed elsewhere or left out. The full chains were built here from the parent and the listed change. Values near 0.05 are background.
B1: TEV protease; numbered along this chain (parent)
chain: MGESLFKGPRDYNPISSSICHLTNESDGHTTSLYGIGFGPFIITNKHLFRRNNGTLVVQSLHGVFKVKDTTTLQQHLVDGRDMIIIRMPKDFPPFPQKLKFREPQREERICLVTTNFQTKSMSSMVSDTSCTFPSGDGIFWKHWIQTKDGQCGSPLVSTRDGFIVGIHSASNFTNTNNYFTSVPKNFMELLTNQEAQQWVSGWRLNADSVLWGGHKVFMVKPEEPFQPVKEATQL

Variants of: B1
Assay: raw area under fraction-flipped curve 0-4 h after induction (AUC4h, not background-subtracted), DNA-recorder readout of cleavage of the substrate (dimensionless); higher = more cleavage of the substrate by the protease variant
Conditions: temperature: 34 °C; time window: 0-4 h after rhamnose induction
Method: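 In vivo DNA recorder in E. coli TOP10(DE3) ΔrhaA at 34 °C. Each TEVp single-site mutant (parent TEVp 0) is paired with a single-site variant of the 7-mer TEVs (canonical ENLYFQ|S). The substrate sits between flexible linkers in a Bxb1-sfGFP-TEVs-SsrA fusion, so cleavage stabilises Bxb1 and speeds flipping of a recombination array, read by NGS. The value is the raw area under the fraction-flipped curve over 0-4 h after rhamnose induction (AUC4h), with ≥20 reads per time point. It is not background-subtracted; inactive controls average about 0.047.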
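Also: Bxb1 expression induced with 0.2% (w/v) L-rhamnose at OD600 near 0.5, cultures sampled hourly, flipped fraction per protease–substrate barcode pair counted by paired-end Illumina sequencing.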

Row | Variant | area with substrate ENLYFAS | area with substrate ENLYFCS | area with substrate ENLYFES | area with substrate ENLYFFS | area with substrate ENLYFGS | area with substrate ENLYFHS | area with substrate ENLYFIS | area with substrate ENLYFKS | area with substrate ENLYFSS | area with substrate ENLYFTS | area with substrate ENLYFVS | area with substrate ENLYFYS | area with substrate ENLYFLS | area with substrate ENLYFMS | area with substrate ENLYFPS | area with substrate ENLYFWS | area with substrate ENLYFDS | area with substrate ENLYFNS | area with substrate ENLYFRS
1 | F218P | 0.0477 | 0.054 | 0.0571 | 0.0679 | 0.0616 | 0.0472 | 0.0601 | 0.0541 | 0.0522 | 0.0679 | 0.0606 | 0.0717 | – | – | – | – | – | – | –
2 | G213F | 0.0621 | – | 0.0568 | 0.0737 | – | – | 0.0495 | 0.0555 | 0.0517 | – | 0.0509 | 0.0581 | 0.0655 | 0.067 | 0.0628 | 0.0498 | – | – | –
3 | A196L | 0.0609 | 0.0611 | 0.0656 | 0.0774 | 0.0572 | 0.0582 | 0.0521 | 0.0762 | 0.067 | 0.0544 | 0.0585 | 0.0592 | 0.0563 | 0.0643 | 0.059 | 0.0533 | 0.071 | 0.0715 | 0.0623
4 | Q234K | 0.0569 | – | 0.0826 | 0.0476 | 0.0633 | 0.0454 | 0.0554 | 0.0648 | 0.0571 | 0.0577 | 0.031 | 0.0681 | 0.0605 | 0.0768 | 0.0584 | 0.0532 | 0.0488 | 0.0477 | 0.0589
5 | Q234I | 0.0665 | 0.0698 | 0.0633 | – | 0.055 | 0.0576 | 0.0537 | 0.0851 | – | 0.0411 | 0.0611 | 0.0636 | 0.0329 | 0.067 | – | 0.0583 | – | 0.0683 | 0.0637
6 | G202A | 0.0585 | 0.0448 | 0.0769 | 0.0813 | – | 0.0828 | 0.0549 | 0.0714 | 0.0641 | 0.0519 | – | 0.0561 | 0.0513 | 0.035 | 0.0574 | 0.0655 | – | 0.06 | 0.0647
7 | N206H | 0.052 | – | 0.0816 | 0.0781 | – | 0.0563 | 0.0464 | 0.0754 | 0.0546 | 0.0562 | – | 0.0594 | 0.0545 | 0.0583 | – | 0.0552 | 0.0515 | – | 0.0528
8 | N206G | 0.0645 | – | 0.0632 | – | – | – | 0.0615 | 0.0655 | – | 0.0651 | 0.0625 | 0.053 | – | 0.0826 | 0.06 | 0.0539 | – | 0.0682 | –
9 | R204T | 0.0621 | – | 0.0559 | 0.08 | 0.0632 | – | 0.0635 | 0.0722 | – | 0.058 | 0.0547 | 0.0587 | 0.0567 | 0.0721 | 0.0847 | 0.0574 | 0.053 | – | 0.0825
10 | S201W | 0.0564 | 0.0612 | 0.0644 | 0.0592 | 0.0522 | – | 0.0492 | 0.0568 | – | 0.0699 | 0.0401 | 0.0533 | – | 0.0637 | 0.0605 | 0.0498 | 0.0505 | – | 0.0522
11 | S4N | – | 0.0301 | 0.0556 | 0.063 | – | 0.0636 | 0.0527 | 0.0788 | 0.062 | 0.0596 | – | 0.0541 | – | 0.0617 | 0.0554 | 0.0436 | 0.0434 | 0.0629 | 0.0821
12 | V220I | 0.0405 | 0.0536 | 0.0579 | – | – | – | 0.0552 | – | – | 0.0572 | 0.0525 | – | 0.0523 | 0.0723 | 0.0566 | 0.0559 | 0.0397 | 0.0588 | 0.0563
